In patent US20240343788A1 (published 2024):

T1: TGF-β3 (human, UniProt P10600 301-412)
T1 sequence (looked up): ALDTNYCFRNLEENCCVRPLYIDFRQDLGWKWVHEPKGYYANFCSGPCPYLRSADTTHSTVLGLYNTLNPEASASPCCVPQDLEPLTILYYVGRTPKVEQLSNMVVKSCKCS

T2: Activin B (human, UniProt P09529 293-407)
T2 construct: also called human activin B
T2 sequence (looked up): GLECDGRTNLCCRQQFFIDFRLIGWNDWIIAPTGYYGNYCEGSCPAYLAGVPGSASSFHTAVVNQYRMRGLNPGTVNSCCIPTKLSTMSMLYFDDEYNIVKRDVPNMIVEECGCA

T3: Activin AB (human, UniProt P08476 311-426; P09529 293-407)
T3 construct: the beta A / beta B heterodimer is general knowledge
T3 sequence (looked up) 1: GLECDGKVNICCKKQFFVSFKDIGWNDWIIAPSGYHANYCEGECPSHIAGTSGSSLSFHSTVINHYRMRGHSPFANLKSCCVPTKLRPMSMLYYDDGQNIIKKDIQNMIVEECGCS
T3 sequence (looked up) 2: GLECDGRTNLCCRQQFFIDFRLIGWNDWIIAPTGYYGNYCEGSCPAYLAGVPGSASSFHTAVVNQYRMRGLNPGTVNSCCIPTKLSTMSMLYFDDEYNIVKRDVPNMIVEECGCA


Legend:
TGF-β3 [1] = target: T1, TGF-β3; test: cell-based or functional assay
TGF-β1 [2] = target: T4, TGF-β1 (human, UniProt P01137 partial chain); test: cell-based or functional assay
Activin A [3] = target: T5, Activin A (human); test: BLI (Octet RED96), antagonist captured on biosensor, ligand in solution
T5 construct: also called human activin A
Text: (§1) The binding sensorgrams were collected using the 8-channel detection mode on the biosensor.

GDF-11 [4] = target: T6, GDF-11 (human, UniProt O95390 299-407); test: as above
Text: as §1

Activin B [5] = target: T2, Activin B; test: as above
Text: as §1

GDF-8 [6] = target: T7, GDF-8 (human); test: as above
T7 construct: also called myostatin; Myostatin (GDF-8)
Text: as §1

TGF-β3 [7] = target: T1, TGF-β3; test: as above
Text: as §1

TGF-β1 [8] = target: T4, TGF-β1; test: as above
T4 sequence (P01137 279-390 limits assumed): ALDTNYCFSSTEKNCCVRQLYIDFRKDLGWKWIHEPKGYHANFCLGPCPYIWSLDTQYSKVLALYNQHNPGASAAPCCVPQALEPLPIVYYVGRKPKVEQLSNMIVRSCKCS
Text: as §1

Activin AB = target: T3, Activin AB; test: as above
Text: as §1

GDF-11 [9] = target: T6, GDF-11; test: cell-based or functional assay
T6 sequence (O95390 299-407 limits assumed): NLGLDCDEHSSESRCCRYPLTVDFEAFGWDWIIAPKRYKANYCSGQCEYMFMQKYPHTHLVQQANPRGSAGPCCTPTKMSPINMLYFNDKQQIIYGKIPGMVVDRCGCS

GDF-8 [10] = target: T7, GDF-8; test: cell-based or functional assay
Activin A [11] = target: T5, Activin A; test: cell-based or functional assay
Activin B [12] = target: T2, Activin B; test: cell-based or functional assay

IC50; neutralisation of TGF-β3 signalling, C2C12-CAGA-luc Smad2/3 luciferase reporter cells (RLU) (TGF-β3 [1]) [nM]	IC50; neutralisation of TGF-β1 signalling, C2C12-CAGA-luc Smad2/3 luciferase reporter cells (RLU) (TGF-β1 [2]) [nM]	Kd (Activin A [3]) [nM]	Kd (GDF-11 [4]) [nM]	Kd (Activin B [5]) [nM]	Kd (GDF-8 [6]) [nM]	Kd (TGF-β3 [7]) [nM]	Kd (TGF-β1 [8]) [nM]	Kd (Activin AB) [nM]	IC50; neutralisation of GDF-11 signalling, C2C12-CAGA-luc Smad2/3 luciferase reporter cells (RLU) (GDF-11 [9]) [nM]	IC50; neutralisation of GDF-8 signalling, C2C12-CAGA-luc Smad2/3 luciferase reporter cells (RLU) (GDF-8 [10]) [nM]	IC50; neutralisation of Activin A signalling, C2C12-CAGA-luc Smad2/3 luciferase reporter cells (RLU) (Activin A [11]) [nM]	IC50; neutralisation of Activin B signalling, C2C12-CAGA-luc Smad2/3 luciferase reporter cells (RLU) (Activin B [12]) [nM]	Binder
–	–	~0.112	~0.005	–	~0.00195	~0.0021	~0.001	~0.001	–	–	–	–	A216 (Fc fusion) [no letters for human IgG1 Fc]GGGGSGGGGSGGGGSETQECLFFNANWEKDRTNQTGVEPCYGDKDKRRHCFATWKNISGSIEIVKQGCWLDDINCYDRTDCVEKKDSPEVYFCCCEGNMCNEKFSYFPEMEVTQPTSNPVTPKPPGGGGSGGGGSGGGGSTIPPHVQKSDVEMEAQKDEIICPSCNRTAHPLRHINNDMIVTDNNGAVKFPQLCKFCDVRFSTCDNQKSCMSNCSITSICEKPQEVCVAVWRKNDENITLETVCHDPKLPYHDFILEDAASPKCIMKEKKKPGETFFMCSCSSDECNDNIIFSEEYNTSNPD
–	–	–	–	–	–	–	~0.001	–	–	–	–	–	A167 (bispecific antibody, also called antibody-based multispecific antagonist A167) heavy: QVQLVQSGAEVKKPGASVKVSCKASGYTFTSYGLSWVRQAPGQGLEWMGWIIPYNGNTNSAQKLQGRVTMTTDTSTSTAYMELRSLRSDDTAVYFCARDRDYGVNYDAFDIWGQGTMVTVSSGGGGSGGGGSGGGGSQVQLVQSGAEVKKPGSSVKVSCKASGYTFSSNVISWVRQAPGQGLEWMGGVIPIVDIANYAQRFKGRVTITADESTSTTYMELSSLRSEDTAVYYCASTLGLVLDAMDYWGQGTLVTVSSASTKGPSVFPLAPCSRSTSESTAALGCLVKDYFPEPVTVSWNSGALTSGVHTFPAVLQSSGLYSLSSVVTVPSSSLGTKTYTCNVDHKPSNTKVDKRV[no letters for human IgG4 Fc] light: not shown

More lines, now with the values behind:

Binder	IC50; neutralisation of TGF-β3 signalling, C2C12-CAGA-luc Smad2/3 luciferase reporter cells (RLU) (TGF-β3 [1]) [nM]	IC50; neutralisation of TGF-β1 signalling, C2C12-CAGA-luc Smad2/3 luciferase reporter cells (RLU) (TGF-β1 [2]) [nM]	Kd (Activin A [3]) [nM]	Kd (GDF-11 [4]) [nM]	Kd (Activin B [5]) [nM]	Kd (GDF-8 [6]) [nM]	Kd (TGF-β3 [7]) [nM]	Kd (TGF-β1 [8]) [nM]	Kd (Activin AB) [nM]	IC50; neutralisation of GDF-11 signalling, C2C12-CAGA-luc Smad2/3 luciferase reporter cells (RLU) (GDF-11 [9]) [nM]	IC50; neutralisation of GDF-8 signalling, C2C12-CAGA-luc Smad2/3 luciferase reporter cells (RLU) (GDF-8 [10]) [nM]	IC50; neutralisation of Activin A signalling, C2C12-CAGA-luc Smad2/3 luciferase reporter cells (RLU) (Activin A [11]) [nM]	IC50; neutralisation of Activin B signalling, C2C12-CAGA-luc Smad2/3 luciferase reporter cells (RLU) (Activin B [12]) [nM]
A118 (Fc fusion, also called multispecific antagonist molecule A118) GNCWLRQAKNGRCQVLYKTELSKEECCSTGRLSTSWTEEDVNDNTLFKWMIFNGGAPNCIPCKETCENVDCGPGQSCVVDQTGSPRCVCAPDCSNITWKGPVCGLDGKTYRNECALLKARCKEQPELEVQYQGRCKKTCRDVFCPGSSTCVVDQTNNAYCVTCNRICPEPASSEQYLCGNDGVTYSSACHLRKATCLLGRSIGLAYEGKCIKAKSCEDIQCTGGKKCLWDFKVGRGRCSLCDELCPDSKSDEPVCASDNATYASECAMKEAACSSGVLLEVKHSGSCNSISEDTEEEEEDEDQDYSFPISSILEWGGGGSGGGGSGGGGS[no letters for human IgG1 Fc]GGGGSGGGGSGGGGSTIPPHVQKSDVEMEAQKDEIICPSCNRTAHPLRHINNDMIVTDNNGAVKFPQLCKFCDVRFSTCDNQKSCMSNCSITSICEKPQEVCVAVWRKNDENITLETVCHDPKLPYHDFILEDAASPKCIMKEKKKPGETFFMCSCSSDECNDNIIFSEEYNTSNPD	0.3	3.8	~0.001	~9.15	~0.001	~0.001	~0.001	~0.612	~0.001	15	0.6	8.4	1.9
A117 (Fc fusion, also called multispecific antagonist molecule A117) GNCWLRQAKNGRCQVLYKTELSKEECCSTGRLSTSWTEEDVNDNTLFKWMIFNGGAPNCIPCKETCENVDCGPGQSCVVDQTGSPRCVCAPDCSNITWKGPVCGLDGKTYRNECALLKARCKEQPELEVQYQGRCKKTCRDVFCPGSSTCVVDQTNNAYCVTCNRICPEPASSEQYLCGNDGVTYSSACHLRKATCLLGRSIGLAYEGKCIKAKSCEDIQCTGGKKCLWDFKVGRGRCSLCDELCPDSKSDEPVCASDNATYASECAMKEAACSSGVLLEVKHSGSCNSISEDTEEEEEDEDQDYSFPISSILEWGGGGSGGGGSGGGGS[no letters for human IgG1 Fc]GGGGSGGGGSGGGGSTIPPHVQKSVNNDMIVTDNNGAVKFPQLCKFCDVRFSTCDNQKSCMSNCSITSICEKPQEVCVAVWRKNDENITLETVCHDPKLPYHDFILEDAASPKCIMKEKKKPGETFFMCSCSSDECNDNIIFSEEYNTSNPD	0.4	4.3	~0.195	~6.12	~0.126	~0.00517	~0.001	~0.534	~0.00517	11	1.2	11	1.1
A116 (Fc fusion, also called multispecific antagonist molecule A116; multispecific polypeptide antagonist A116) [no letters for about 120 residues]GGGGSGGGGSGGGGS[no letters for human IgG1 Fc]GGGGSGGGGSGGGGSTIPPHVQKSDVEMEAQKDEIICPSCNRTAHPLRHINNDMIVTDNNGAVKFPQLCKFCDVRFSTCDNQKSCMSNCSITSICEKPQEVCVAVWRKNDENITLETVCHDPKLPYHDFILEDAASPKCIMKEKKKPGETFFMCSCSSDECNDNIIFSEEYNTSNPD	0.1	4.8	~0.001	~8.35	~0.001	~0.001	~0.001	~0.407	~0.001	1.6	1.7	1.9	0.2
A115 (Fc fusion, also called multispecific antagonist molecule A115; multispecific polypeptide antagonist A115) [no letters for about 120 residues]GGGGSGGGGSGGGGS[no letters for human IgG1 Fc]GGGGSGGGGSGGGGSTIPPHVQKSVNNDMIVTDNNGAVKFPQLCKFCDVRFSTCDNQKSCMSNCSITSICEKPQEVCVAVWRKNDENITLETVCHDPKLPYHDFILEDAASPKCIMKEKKKPGETFFMCSCSSDECNDNIIFSEEYNTSNPD	0.2	3.2	~0.0118	~6.06	–	~0.001	~0.001	~0.443	~0.001	2.6	0.8	1.7	0.2
